Here are results for 167 variants from the RNAGym collection of RNA variant scans (doi:10.7554/elife.90254).

Read counts are not given, so values of variants with three or more changes are uncertain.

B1: LINE1-mini (parent)
chain: GGCAGAGCUCAACACAGCGUGGCAAAGUGGCUGUGGCUAGACUGCC

This data set covers variants of B1. The experiment in a line: self-cleavage, relative activity (ratio to wild type); higher = more cleavage; in vitro, sequencing; the parent is a self-cleaving ribozyme.
With G2U C18A C23U G36A C46U, the self-cleavage was found to be 0.02.

With C3A A11C A14C U20C A41C, the self-cleavage was 0.03.

As to C3A A6C C8G A11C C31U, the self-cleavage turned out to be 0.02.

For the variant G2U C10A A14G A26G C37U, the self-cleavage was found to be 0.

As for C3A A6U U43A, the self-cleavage amounted to 0.13.

Turning to C3A C8G G35C C42U, the self-cleavage is 0.08.

Turning to C3A A6G C10U G35U C37A, the self-cleavage amounted to 0.2.

Consider G2U U20G A24G C31A, for which the self-cleavage came to 0.03.

As for C3A A11C G21A G22U A41C, the self-cleavage was 0.06.

As to C3A A4G C31A G44C C45G, the self-cleavage turned out to be 0.01.

Regarding G2U U20G C46U, the self-cleavage stood at 0.06.

On to C3A A14G G22A A24C C45U, for which the self-cleavage was 0.09.

Take G2U G7A G17U G30C G35C A39U: the self-cleavage worked out at 0.02.

In the case of C3A C10G C46A, the self-cleavage is 0.01.

For G2U C31U G35U, the self-cleavage was 0.01.

For the variant G2U U20A A41U, the self-cleavage is 0.05.

On to C3A A4C G5U G33C G36A, for which the self-cleavage turned out to be 0.08.

As for G2U G5C A6U G7U C13A G19C G22A G44C, the self-cleavage was 0.1.

Take C3A C8A A14G: the self-cleavage came out at 0.52.

Turning to G2U C31A C37U, the self-cleavage was 0.05.

Turning to G2U G21U G27A, the self-cleavage is 0.13.

Consider G2U C15A G33U, for which the self-cleavage was determined as 0.07.

For the variant C3A A4U A14U C42A, the self-cleavage amounted to 0.1.

Take G2U G5C G21A G27C G29C: the self-cleavage was 0.02.

Regarding G2U U9A A24C C42U C45U, the self-cleavage was found to be 0.04.

In the case of G2U U32G G35U, the self-cleavage worked out at 0.03.

On to G2U C3U G5U G7U G21A A25U, for which the self-cleavage was determined as 0.34.

For the variant C3A C10G C15A U32A G40A, the self-cleavage came out at 0.01.

Regarding C3A A4C A11C G29A C45A, the self-cleavage amounted to 0.01.

Regarding G2U G29A C31A G35U C37A, the self-cleavage was 0.01.

For the variant C3A A16G G29U G35A, the self-cleavage stood at 0.13.

In the case of C3A A14U A26C, the self-cleavage came to 0.23.

As to G2U C10A U28A G35U, the self-cleavage stood at 0.01.

In the case of G2U C10U G19A U20A A41C, the self-cleavage turned out to be 0.

As for C3A C8U C18A G22U, the self-cleavage stood at 1.28.

In the case of G2U U32A U34A, the self-cleavage worked out at 0.03.

With G2U G19U A41C, the self-cleavage was 0.03.

Consider G2U C15U G17A, for which the self-cleavage stood at 0.02.

For the variant C3A A24U G44U, the self-cleavage stood at 2.8.

Take G2U U9C G22U A26G: the self-cleavage is 0.04.

With C3A A11U C45A, the self-cleavage is 0.03.

In the case of C3A A4G C13G, the self-cleavage was 0.42.

In the case of C3A A6G G36A C42A, the self-cleavage amounted to 0.15.

Consider G2U G19A U20G, for which the self-cleavage worked out at 0.13.

Take G2U U20C A39C: the self-cleavage is 0.02.

Take G2U C15A C42G: the self-cleavage was found to be 0.

In the case of G2U G7C C10U G44C, the self-cleavage stood at 0.04.

In the case of C3A C8U G36C, the self-cleavage came to 0.54.

In the case of G2U C8A A14C A16G, the self-cleavage came to 0.07.

Turning to G2U C31A A41C C46U, the self-cleavage came to 0.

For the variant C3A A24U G33A G36U, the self-cleavage was 0.19.

On to C3A C8U G17C G36C U43A C45U, for which the self-cleavage is 0.07.

For C3A A14U U28C G40C, the self-cleavage came to 0.81.

C3A C10U G29U: the self-cleavage stood at 0.37.

As for G2U G5A A12U A14G G19U U20C C23U A26U G30U, the self-cleavage was determined as 0.01.

For the variant C3A A4C G7U, the self-cleavage was 0.18.

As to G2U C13U G19U, the self-cleavage worked out at 0.02.

Regarding C3A C8U C10U C15G U32C, the self-cleavage amounted to 0.12.

Consider G2U U9A C31G G36C, for which the self-cleavage is 0.

On to C3A C8U G17A G19A G30A C46U, for which the self-cleavage was 0.11.

C3A A6C G21C C45U: the self-cleavage amounted to 0.36.

Take G2U U28C A39G: the self-cleavage amounted to 0.02.

For the variant G2U U9A C18G A26C, the self-cleavage was 0.

In the case of G2U C10G C15A A24U A25C A26G U28A C46G, the self-cleavage was 0.01.

Consider G2U C15U A26G C42U, for which the self-cleavage was 0.09.

On to C3A A12G U38G G44U, for which the self-cleavage was determined as 0.02.

With G2U G27C A41C U43A, the self-cleavage is 0.

In the case of G2U U20G U28C C45A, the self-cleavage came out at 0.55.

As to G2U G30A G40A, the self-cleavage turned out to be 0.05.

As to G2U C8A C23U U38A, the self-cleavage was determined as 0.03.

As for C3A C10U G35C G40U C45G, the self-cleavage came to 0.03.

With G2U C8G C18A, the self-cleavage came to 0.02.

Take C3A A12C G27U G44U: the self-cleavage turned out to be 0.03.

In the case of G2U C13A C18A G33A, the self-cleavage came to 0.01.

Take G2U C3U G22A C31U G33U G35C: the self-cleavage stood at 0.1.

C3A A26U U28G: the self-cleavage was 0.84.

Regarding G2U G29U G36U, the self-cleavage was found to be 0.05.

Turning to G2U G7A C18U G21A A24G G30A, the self-cleavage was determined as 0.02.

Consider C3A A25U C31U, for which the self-cleavage was 0.

As to G2U C23G G27C C46U, the self-cleavage came out at 0.04.

Regarding C3A C8A C15U C18U G21C G44A, the self-cleavage is 0.48.

For G2U C13U G27A G30U G33C, the self-cleavage came to 0.04.

For C3A A6G C13A G22A C31G G40U, the self-cleavage came out at 0.09.

In the case of G2U U20C G29C, the self-cleavage was found to be 0.07.

Regarding C3A A4C G7U G27U U28A U38A, the self-cleavage is 0.21.

For C3A A11C C13A C31U G36U, the self-cleavage was determined as 0.01.

With C3A A6C C10U, the self-cleavage stood at 0.2.

On to G2U C3U A11G U32G, for which the self-cleavage is 0.02.

Turning to G2U C10A U34G, the self-cleavage worked out at 0.04.

As to C3A A26G G33A G44U, the self-cleavage was 0.13.

Take G2U G5U G27A C42U U43C: the self-cleavage was 0.02.

Turning to G2U U9A C13A G19A U20C, the self-cleavage was 0.01.

Take G2U C8A C46A: the self-cleavage was determined as 0.07.

As for G2U U20A A24G A25U G36U, the self-cleavage was 0.01.

G2U C3U A25C: the self-cleavage was found to be 0.17.

Regarding G2U C13A A25C A26C U34A C42A, the self-cleavage was 0.01.

On to G2U G19U U20C C37U, for which the self-cleavage amounted to 0.

Regarding C3A C8A U20C G35A C42A, the self-cleavage stood at 0.48.

With G2U C15A C18G G19C, the self-cleavage turned out to be 0.13.

In the case of G2U C15A G17U U20A G21U C23U, the self-cleavage came to 0.05.

With C3A A4U A6G C46A, the self-cleavage was determined as 0.08.

Turning to C3A A4C U9G G17A, the self-cleavage came to 0.08.

C3A A6U C15A A16G G36U U38C A39U C42G: the self-cleavage came to 0.03.

G2U G21C A24U G36A: the self-cleavage is 0.01.

For G2U C8U G36A, the self-cleavage came out at 0.08.

Turning to C3A C10G C15U G17U G22U C45A, the self-cleavage turned out to be 0.06.

Take C3A A26C G44C: the self-cleavage worked out at 0.7.

Turning to C3A C10U C18A, the self-cleavage is 0.39.

For the variant C3A A25G G44U, the self-cleavage worked out at 1.14.

Take C3A A11G C42G: the self-cleavage turned out to be 0.01.

Regarding G2U C8A U28G, the self-cleavage was found to be 0.06.

G2U G5C G7U A11C C37A A41U C42G: the self-cleavage was 0.01.

As to G2U G17C G29C G44C, the self-cleavage came to 0.06.

Take G2U U20A G22C: the self-cleavage was found to be 0.08.

Turning to G2U G17C G36U A39G G44A C46A, the self-cleavage was found to be 0.03.

For C3A A4U G19C G36C U43A, the self-cleavage is 0.12.

On to G2U C8A A14G C42A, for which the self-cleavage stood at 0.06.

For the variant C3A A14U U32G G40C G44U C46A, the self-cleavage was 0.04.

Regarding G2U G17C C18G C42G C45U, the self-cleavage turned out to be 0.01.

Take C3A C8G C31U: the self-cleavage came out at 0.05.

As for G2U G7C A11U A25U U34A G44C, the self-cleavage stood at 0.

Turning to C3A C10G C15U C23A C37U A39U, the self-cleavage was 0.04.

For C3A A11C C37U, the self-cleavage turned out to be 0.05.

Consider C3A C8A C46A, for which the self-cleavage came out at 0.42.

As for C3A A11C U20G G40C, the self-cleavage stood at 0.

Regarding C3A A25C G33U C45G, the self-cleavage was 0.11.

On to C3A A14U C23A G36A, for which the self-cleavage was 0.33.

Turning to G2U C3U A24G, the self-cleavage came to 0.14.

As to G2U U9A A16U, the self-cleavage amounted to 0.06.

G2U C23A C37U: the self-cleavage stood at 0.01.

For G2U U9A C18U U28C, the self-cleavage was found to be 0.01.

For the variant C3A C8U A11U G27U U28A G30U U38C, the self-cleavage was 0.02.

G2U C15U A39U: the self-cleavage was determined as 0.03.

In the case of C3A A12U C15U G27U C42G, the self-cleavage amounted to 0.11.

For the variant G2U G21U A26G G29U U32C, the self-cleavage came out at 0.04.

Consider G2U G19A C45U, for which the self-cleavage was determined as 0.28.

As to C3A A16C G35U G44A, the self-cleavage worked out at 0.14.

For C3A A4G A14U C37A U43A, the self-cleavage amounted to 0.07.

On to G2U C10A G29A G30A, for which the self-cleavage was found to be 0.02.

On to C3A A11C G21C, for which the self-cleavage was found to be 0.05.

For the variant G2U G5U C13A G33C U43G, the self-cleavage worked out at 0.

G2U G27C G29U G35U: the self-cleavage turned out to be 0.15.

Consider G2U C13A G19C G27U, for which the self-cleavage came to 0.05.

With G2U G35U C42U, the self-cleavage is 0.

On to G2U C8U C31G G33C A39U, for which the self-cleavage stood at 0.01.

For C3A A16C G36C, the self-cleavage was found to be 0.22.

As for C3A A26C C31G, the self-cleavage stood at 0.11.

Turning to G2U G19U C23G C31G, the self-cleavage is 0.01.

For the variant G2U C10A C13A, the self-cleavage came to 0.31.

In the case of G2U U9A A12G C13U G17U U32A G35A G36C U43C, the self-cleavage came to 0.02.

Consider C3A A16G G27A G36C, for which the self-cleavage was 0.58.

Consider G2U C8A G21C U32G G35A, for which the self-cleavage came out at 0.05.

On to C3A A12U C23A A41G, for which the self-cleavage was found to be 0.5.

With C3A C10A G19A A24C G27C, the self-cleavage turned out to be 0.01.

Turning to C3A A12C G19A, the self-cleavage came to 0.02.

C3A C8A A26C G35A: the self-cleavage was 2.88.

For C3A A11G G22C G35C G36C G44C C46A, the self-cleavage is 0.

Take G2U C42U G44U: the self-cleavage is 0.07.

G2U G19U A39C G44A: the self-cleavage was 0.02.

In the case of C3A A11U G19A, the self-cleavage is 0.01.

Take C3A A4G C15A G36U U43A: the self-cleavage came out at 0.06.

G2U C8G U20A C37A: the self-cleavage worked out at 0.05.

G2U G27A U34A A39C: the self-cleavage worked out at 0.04.

Take C3A A6U U28A: the self-cleavage came to 0.21.

In the case of C3A A12G G17C A26U G27C C42G C46U, the self-cleavage is 0.01.

Consider G2U G7U G29C, for which the self-cleavage came to 0.02.

As to G2U G7A G30U, the self-cleavage is 0.02.
